Our source for the binding signal values is publication PMC5700166.

The list shows a part of the results, in another mix than the full data. The list includes weakly bound sequences.

This assay deals with T1, GST-Dm-Relish (UniProt Q94527).
T1 sequence: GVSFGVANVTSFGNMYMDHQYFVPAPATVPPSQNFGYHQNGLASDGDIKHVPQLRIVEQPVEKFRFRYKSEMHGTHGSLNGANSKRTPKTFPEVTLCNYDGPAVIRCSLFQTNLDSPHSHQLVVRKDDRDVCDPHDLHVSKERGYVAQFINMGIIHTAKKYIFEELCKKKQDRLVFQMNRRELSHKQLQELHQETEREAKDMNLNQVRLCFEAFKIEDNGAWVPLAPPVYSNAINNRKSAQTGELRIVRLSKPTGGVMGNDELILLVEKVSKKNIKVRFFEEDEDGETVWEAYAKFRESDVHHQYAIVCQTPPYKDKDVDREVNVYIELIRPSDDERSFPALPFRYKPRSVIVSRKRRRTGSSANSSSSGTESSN
Description: protein-binding microarray (PBM). To be noted: PBM: ~300 nM protein, 6 mM HEPES pH 7.8, 80 mM KCl, 0.5 mM EDTA, 0.5 mM EGTA, 6% glycerol, 35 ng/ul poly-dIdC, 1% milk, 1 h, room temperature; Ap Aiptasia and Nv Nematostella (sea anemones) / Co Capsaspora / Aq Amphimedon (sponge) / Dm Drosophila / Hu human; RHD is the Rel homology domain; high values mean tight binding; most listed sequences are background and not binding sites; double strand, one strand shown.
“CCGATTAACATCAAGAATCCCCTTGATGTTAATCGGGTCTTGATTCGCTTGACGCTGCTG” came in with a binding signal of 8.39 z-score.

For “CCGATTAACATCAAATTTCCCGCTGATGTTAATCGGGTCTTGATTCGCTTGACGCTGCTG”, the binding signal is 2.88 z-score.

Take “CCGATTAACATCAAGGGGTCCCCTGATGTTAATCGGGTCTTGATTCGCTTGACGCTGCTG”: the binding signal was 6.15 z-score.

The sequence “CCGATTAACATCAATTTCCCGCCTGATGTTAATCGGGTCTTGATTCGCTTGACGCTGCTG” registered a binding signal of 1.31 z-score.

“CCGATTAACATCACCGCTTCCCTTGATGTTAATCGGGTCTTGATTCGCTTGACGCTGCTG” came in with a binding signal of 0.753 z-score.

In turn, “CCGATTAACATCAGGCAAACCCCTGATGTTAATCGGGTCTTGATTCGCTTGACGCTGCTG” displayed a binding signal of 3.13 z-score.

“CCGATTAACATCAGGGCTCCCCATGATGTTAATCGGGTCTTGATTCGCTTGACGCTGCTG” registered a binding signal of 3.88 z-score.

“CCGATTAACATCATCAGTTTCCCTGATGTTAATCGGGTCTTGATTCGCTTGACGCTGCTG”: the binding signal was -0.0647 z-score.

“CCGATTAACATCAAAATTCCCAATGATGTTAATCGGGTCTTGATTCGCTTGACGCTGCTG” registered a binding signal of 5.17 z-score.

“CCGATTAACATCAGGGAAATCCATGATGTTAATCGGGTCTTGATTCGCTTGACGCTGCTG” registered a binding signal of 5.65 z-score.

“CCGATTAACATCAGGGAATTAGATGATGTTAATCGGGTCTTGATTCGCTTGACGCTGCTG” yielded a binding signal of 0.874 z-score.

Sequence “CCGATTAACATCAGGGGAATCACTGATGTTAATCGGGTCTTGATTCGCTTGACGCTGCTG” came in with a binding signal of 10.6 z-score.

“CCGATTAACATCATTTCCCTTGATGATGTTAATCGGGTCTTGATTCGCTTGACGCTGCTG” returned a binding signal of 0.0348 z-score.

As to “CCGATTAACATCAAGCGTTTCCCTGATGTTAATCGGGTCTTGATTCGCTTGACGCTGCTG”, the binding signal is 0.746 z-score.

On to “CCGATTAACATCAGGGGGGATACTGATGTTAATCGGGTCTTGATTCGCTTGACGCTGCTG”, for which the binding signal worked out at 5.55 z-score.

“CCGATTAACATCACAAACGGGGCTGATGTTAATCGGGTCTTGATTCGCTTGACGCTGCTG” displayed a binding signal of 1.33 z-score.

For “CCGATTAACATCAGGATGCCCCCTGATGTTAATCGGGTCTTGATTCGCTTGACGCTGCTG”, the binding signal came to 4.63 z-score.

Sequence “CCGATTAACATCAAGGGGGGGAATGATGTTAATCGGGTCTTGATTCGCTTGACGCTGCTG” registered a binding signal of 4.96 z-score.

In the case of “CCGATTAACATCAGGGGTTACACTGATGTTAATCGGGTCTTGATTCGCTTGACGCTGCTG”, the binding signal was 2 z-score.

On to “CCGATTAACATCAGGGAACACCCTGATGTTAATCGGGTCTTGATTCGCTTGACGCTGCTG”, for which the binding signal turned out to be 8.18 z-score.

On to “CCGATTAACATCAGAATAACCCCTGATGTTAATCGGGTCTTGATTCGCTTGACGCTGCTG”, for which the binding signal stood at 3.29 z-score.

“CCGATTAACATCAGGATGTCCCCTGATGTTAATCGGGTCTTGATTCGCTTGACGCTGCTG”: the binding signal came out at 5.89 z-score.

As for “CCGATTAACATCACACATGCCCCTGATGTTAATCGGGTCTTGATTCGCTTGACGCTGCTG”, the binding signal was determined as 0.998 z-score.

In the case of “CCGATTAACATCAAAAGTCCCCATGATGTTAATCGGGTCTTGATTCGCTTGACGCTGCTG”, the binding signal was found to be 8.38 z-score.

On to “CCGATTAACATCAGGCTATTCCCTGATGTTAATCGGGTCTTGATTCGCTTGACGCTGCTG”, for which the binding signal is 0.784 z-score.

“CCGATTAACATCAGGGGTAAATATGATGTTAATCGGGTCTTGATTCGCTTGACGCTGCTG” showed a binding signal of 1.66 z-score.

“CCGATTAACATCACGGGAAACCCTGATGTTAATCGGGTCTTGATTCGCTTGACGCTGCTG” came in with a binding signal of 7.56 z-score.

In turn, “CCGATTAACATCACTTTCCCAAATGATGTTAATCGGGTCTTGATTCGCTTGACGCTGCTG” returned a binding signal of 0.916 z-score.

In the case of “CCGATTAACATCAATCTACCCCCTGATGTTAATCGGGTCTTGATTCGCTTGACGCTGCTG”, the binding signal amounted to 2.3 z-score.

As for “CCGATTAACATCAAGGGGGGAACTGATGTTAATCGGGTCTTGATTCGCTTGACGCTGCTG”, the binding signal was 3.7 z-score.

“CCGATTAACATCAGGGAAATGTATGATGTTAATCGGGTCTTGATTCGCTTGACGCTGCTG” registered a binding signal of 0.922 z-score.

On to “CCGATTAACATCAAGGTGGGAATTGATGTTAATCGGGTCTTGATTCGCTTGACGCTGCTG”, for which the binding signal was 0.988 z-score.

Sequence “CCGATTAACATCACCTCCCCCCCTGATGTTAATCGGGTCTTGATTCGCTTGACGCTGCTG” showed a binding signal of 4.13 z-score.

For “CCGATTAACATCAGATATTCCCATGATGTTAATCGGGTCTTGATTCGCTTGACGCTGCTG”, the binding signal amounted to 1.78 z-score.

“CCGATTAACATCAGGGGTAGGTTTGATGTTAATCGGGTCTTGATTCGCTTGACGCTGCTG” had a binding signal of 0.828 z-score.

As for “CCGATTAACATCAAATTCCCACGTGATGTTAATCGGGTCTTGATTCGCTTGACGCTGCTG”, the binding signal is 3.95 z-score.

Sequence “CCGATTAACATCATAATTCCCAATGATGTTAATCGGGTCTTGATTCGCTTGACGCTGCTG” came in with a binding signal of 2.22 z-score.

For “CCGATTAACATCAGAGTGGGAAATGATGTTAATCGGGTCTTGATTCGCTTGACGCTGCTG”, the binding signal worked out at 0.0591 z-score.

Sequence “CCGATTAACATCAAAGTGTCCCCTGATGTTAATCGGGTCTTGATTCGCTTGACGCTGCTG” came in with a binding signal of 1.98 z-score.

For “CCGATTAACATCAGGGTTTTTTATGATGTTAATCGGGTCTTGATTCGCTTGACGCTGCTG”, the binding signal stood at 5.89 z-score.
